Assay results: PubChem BioAssay AID1508623 (National Center for Advancing Translational Sciences (NCATS), 2021)
About 450 (0.94%) of roughly 48,000 compounds were called active. Not shown: some 19% with an inconclusive outcome. Calls follow the shape of the dose curve; as a rule, active = well fitted inhibition curve with a large enough effect; inconclusive = small, poorly fitted or top-dose-only effect; inactive = no such curve, though single readings can be large or run the other way. The list shows a part of the results.

test: Primary qHTS for Identification of Small Molecule Inhibitors of Huntingtin Promoter Activity; conditions: HEK293 HTT promoter firefly luciferase reporter (activity 0% = vehicle and -100% = no light), 24 h; series mostly up to 57.5 µM; activity change, negative = inhibition: at the top concentration; also: nearly all actives have a fitted effect of over 50% in size
Summary of the method: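 HEK293 luciferase promoter-reporter cells (2,500/well) plated 24 h, then compounds added at up to 57.5 uM final for 24 h at 37 °C. Firefly luminescence by Dual-Glo, normalized to vehicle (0%) and zero RLU (-100%).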

Activity change, negative = inhibition, inactive:
Cc1nc(-c2ccccc2)sc1CCNS(=O)(=O)c1ccccc1 -19.1%, COc1ccc(NC(=O)CN2C(=O)CSc3ccc(S(=O)(=O)N4CCCC4)cc32)cc1OC -22.5%, Cc1ccccc1Cn1c(CN2CCC(C(=O)NCCN(C)C)CC2)cc2ccccc21 -14.7%, Cc1ccccc1NC(=O)CN1C(=O)C(C)(C)c2ccccc21 -18% [at 11.5 µM], COc1cccc(NC(=O)c2cc3c(=O)n(C)c4ccccc4c3n2C)c1 -3.22%, CCCCNC(=O)c1cnn2c(C)c(Cc3c(F)cccc3Cl)c(C)nc12 -18%, Cc1cccc(C)c1NC(=O)Cn1c(=O)n(CCC(=O)NCc2ccccc2Cl)c(=O)c2sccc21 -13.1%, COc1ccc(OC)c(CCNC(=O)c2c(C)oc3ncn(C)c(=O)c23)c1 6.95%, O=C(Cn1c(SCC(=O)Nc2ccc(F)cc2)nc2ccccc21)NCc1ccc(F)cc1 -30.3%, N#Cc1ccc(C(=O)Nc2cc3nn(-c4ccccc4)nc3cc2Cl)c(F)c1 8.3%, CCCC(=O)NCC1(N(C)C)CCCCC1 -14.2%, CCOC(=O)C1CCN(S(=O)(=O)c2cc(Br)cc3c2N(C(=O)CC)CC3)CC1 -1.44%, COc1ccc(NC(=O)C(=O)NCCc2csc(-c3ccc(Cl)cc3)n2)cc1OC -30%, CCOc1cc2sc(N3CCC(C(=O)Nc4ccc(C)cc4C)CC3)nc2cc1Br 77.7%, CCN1CCN(c2ncc3c(n2)CCN(Cc2cc(F)cc(F)c2)C3)CC1 -23.8%, COc1ccccc1NC(=O)C(=O)NCC(c1ccc2c(c1)OCO2)N1CCN(C)CC1 (stereo unspecified) -8.11%, Cn1c(=NC(=O)c2ccc(S(=O)(=O)N3CCCc4ccccc43)cc2)sc2cc(F)ccc21 -22.2%, CC(C)OCCCn1c(=O)c2ccccc2n2c(-c3ccc(F)cc3)nnc12 2.84%, Cc1cccc(C(=O)Nc2c(-c3ccccc3)nc3cc(C)ccn23)c1 13.6%, Cc1ccc(S(=O)(=O)NC(=O)NC2CCCC2)cc1 7.68%, COC(=O)c1ccc(NC(=O)CSc2nc(=O)[nH]c3c2CCCC3)cc1 -8.81%, CCOC(=O)COc1ccc([N+](=O)[O-])cc1-c1ccnc2cc(-c3ccc(Cl)cc3)nn12 -4.76%, CN(C)c1ccc(C(CNC(=O)c2ccccc2)N2CCc3ccccc32)cc1 (stereo unspecified) 22.9%, CC(C)CC(=O)Nc1cccc(-c2nc3ccccc3[nH]2)c1 44.2%, Cc1cccc(-c2noc(-c3ccccc3OCC(=O)Nc3ccc([N+](=O)[O-])cc3)n2)c1 -0.142%, COc1ccccc1CNc1nc(-c2ccco2)nn1S(=O)(=O)c1ccc2ccccc2c1 -6.48%, Cc1ccccc1C(=O)Nc1sc2c(c1C(=O)NCc1ccco1)CCC(C(C)(C)C)C2 (stereo unspecified) -11.1%, Cc1ccc(SCCNC(=O)CN(c2ccccc2)S(=O)(=O)N(C)C)cc1 -21.2%, CCOc1cc(C(=O)OCc2cc(=O)n3nc(CC)sc3n2)cc(OCC)c1OCC -1.06%, CCC(=O)N1CCc2cc(Br)cc(S(=O)(=O)N3CCCC(C(=O)Nc4ccc(C(C)C)cc4)C3)c21 (stereo unspecified) -6.47%, CCc1cnc2c(c1SCC(=O)c1ccccc1)c(=O)n(C)c(=O)n2C -13.8%, CCOc1sc2nc(C)n(CC(=O)Nc3cccc(C)c3)c(=O)c2c1C 0.0317%, Cc1scc2c1N(C(=O)CN1CCN(C)CC1)c1ccccc1NC2=O 24.5%, COC(=O)c1ccccc1NC(=O)c1c(C)oc2ncn(C)c(=O)c12 -4.93%, COc1ccc(OCc2nc3ccccc3n2Cc2ccccc2Cl)cc1 -17.7%, Cc1ccc(CNS(=O)(=O)c2cc3[nH]c(=O)c(=O)[nH]c3cc2C)cc1 -1.41%, Cc1cn2c(=O)cc(COc3ccccc3NC(=O)c3ccco3)nc2s1 -2.29%, Cc1c(C(=O)NCc2cccc(Cl)c2)sc2nc3n(c(=O)c12)CCC3 6.35%, Cc1ccc(S(=O)(=O)NC2(C(F)(F)F)C(=O)Nc3c2c(=O)[nH]c(=O)n3-c2ccccc2)cc1 (stereo unspecified) -3.56%, CCN1CCN(CCCNC(=O)c2cnn(-c3ccc(C)cc3C)c2C2CCN(C(=O)OC(C)(C)C)CC2)CC1 -19.2%, NC(=O)c1nc(-c2ccc(F)c(F)c2)nc2c1[nH]c(=O)n2-c1cccc(Cl)c1 -11%, Cc1ccc(C(=O)Nc2ccc3nc(SCC(=O)N4CCCc5ccccc54)sc3c2)cc1 -25.9%, O=C(COC(=O)c1cc(-c2ccccc2)nc2ccccc12)c1ccc(Br)cc1 -2.01%, Cc1ccc(CNC(=O)Cc2ccc(NC(=O)N3CCSc4ncccc43)cc2)cc1 -24.4%, CC(C)(C)NC(=O)N1CCC(C(=O)O)CC1 -8.98%, CCCNC(=O)c1ccc(Cn2c(=O)c3cccn3c3cccnc32)cc1 -10.9%, CCc1ccccc1NC(=O)c1ccc2c(c1)nnn2C1CCCC1 -9.68%, CCOc1ccccc1NC(=O)CN1C(=O)COc2ccc(S(=O)(=O)NC3CCCC3)cc21 -21.5%, COCCCNC(=O)CCCn1c(=O)c2cccn2c2ccccc21 18.1%, COc1ccccc1CNC(=O)CCC1N=C2c3ccccc3N=C(SCc3ccc(Cl)cc3)N2C1=O (stereo unspecified) -24.9%, Cc1ccc(N2CCN(S(=O)(=O)c3ccc(Cl)c4ccccc34)CC2)c(C)c1 2.59%, O=C(Nc1cccc(C(F)(F)F)c1)c1cccc(C(=O)Nc2cccc(C(F)(F)F)c2)c1 -24.3%, CCOC(=O)c1c(C)c(-c2ccccc2)n(CC(=O)Nc2cc(C)cc(C)c2)c1C -13.1%, O=C(CSc1nnc(-c2cccc(F)c2)c(-c2cccc(F)c2)n1)NC1CCCCC1 -26.7%, O=C(Cn1ncc2c(=O)oc3ccccc3c21)N1CCN(c2ccc(Cl)cc2)CC1 6.08%, COc1ccc(-n2nc3c(N4CCC(C(=O)NCCc5ccccc5)CC4)nnc(C)c3c2C)cc1 -26.9%, COc1cccc(CSc2nc(-c3ccccc3F)nc3c2Cc2c(CO)cnc(C)c2O3)c1 -15.1%, COc1ccc2cc(CNc3ccc(C)cc3)c(=O)n(CC(=O)Nc3cccc(Cl)c3C)c2c1 -28.8%, COc1cc(Cl)c(C)cc1NC(=O)c1cnn(-c2ccc(F)cc2F)c1C1CCN(C(=O)OC(C)(C)C)CC1 -21.8%, CCOC(=O)c1c(NC(=O)COc2ccccc2Br)sc2c1CCCCC2 -9.15%, CC(C)(C)c1ccc(C(=O)N(Cc2ccc(F)cc2)Cc2ccco2)cc1 -25.5%, Cc1ccc(-c2nnc(Nc3ccccc3)c3ccccc23)cc1S(=O)(=O)N1CCN(C)CC1 1.98% [at 11.5 µM], COc1ccc(-c2nc(CSc3nnc(C)n4c3cc3oc(C)cc34)c(C)o2)cc1OC 1.94%, CCn1cc2nc(SCc3ccc(F)cc3)n(CCc3ccccc3)c(=O)c2n1 -31.4%, Cc1ccc(CNC(=O)CCc2cn(Cc3ccc(C)cc3)c3ccccc23)cc1 -16.5%, CCOc1ccc(-c2cc3nc(C4CCN(C(=O)OC(C)(C)C)CC4)c(C(=O)Nc4c(C)cccc4C)cn3n2)cc1 -30.7%, Cc1cc(C)c(Cn2c(=O)n(CCCCC(=O)NCc3ccccc3Cl)c(=O)c3ccccc32)c(C)c1 -1.56%, CCOC(=O)c1c(C)sc(-c2c(-c3cccc(Cl)c3)[nH]c3c2c(=O)n(C)c(=O)n3C)c1O 20.7%, COc1ccc(NC(=O)C2=C(C)Nc3ncnn3C2c2ccc[nH]2)cc1 (stereo unspecified) -16.2%, Cc1c(C(=O)N(C)C)sc2c1c(=O)n(-c1ccc(F)cc1)c(=O)n2Cc1ccccc1C#N 9.29%, CCc1ccccc1N(C)S(=O)(=O)c1ccc2c(c1)C(C)(C)C(=O)N2C -28.7%, CC(=O)Nc1ccc(NC(=O)C2CCN(c3cnccn3)CC2)cc1 -3.61%, Fc1ccc2c(c1)-c1c(cnc3cc(-c4ccc(Cl)cc4)nn13)CO2 5.94%, CC(=O)N1CCc2cc(CNC(=O)Nc3ccc(Br)c(C)c3)ccc21 -9.08%, COc1cccc(NC(=O)c2csnn2)c1 28.8%, C=Cc1ccc(Cn2ccn(-c3ccc(F)c(F)c3)c(=O)c2=O)cc1 -10.2%, COc1ccc(CN(CCN(C)C)c2ccccn2)cc1 9.42%, CCOc1ccc(CCNC(=O)c2c(C)oc3ncn(CC(C)C)c(=O)c23)cc1OCC 5.53%, CC(=O)N1CCc2c(sc3c2c(=O)n(-c2ccccc2)c(=O)n3CC(=O)Nc2cc(C)cc(C)c2)C1 -2.13%, CC(COc1ccccc1)N(CCCl)Cc1ccccc1 (stereo unspecified), CCCCCc1ccc(-c2ccc(Br)cc2)nc1 76.5%, Cc1ccc(-n2nc(C(=O)N3CCN(c4ccccc4F)CC3)c(=O)n(C)c2=O)cc1 -14%, O=C(NCc1ccccc1F)C(=O)NCC(c1ccc2c(c1)OCO2)N1CCOCC1 (stereo unspecified) -17.5%, CCc1ccc(NC(=O)CSc2nc(C)c(C(=O)Nc3ccccc3)c(-c3ccc(OC)c(OC)c3)c2C#N)cc1 -17.3%, Cc1cc(Br)ccc1NC(=O)CSc1c2c(nc3ccccc13)CCC2 -27.4%, CC(C)(C)C(=O)CSc1nc2ccsc2c(=O)n1Cc1ccccc1Cl -27.3%, CSc1ccc(CCNC(=O)c2cc(C)nc3c2c(C)nn3-c2cccc(F)c2)cc1 -7.35%, COc1ccc(NC(=O)c2cc3cc(C)ccc3[nH]2)cc1 20.1%, COc1ccccc1N1CCN(c2ccc(=O)n(CC(=O)NCc3ccc(F)cc3)n2)CC1 -1.34%, COc1cccc(CSc2nc3n(n2)C(c2ccc(C(=O)O)cc2)C(C(=O)Nc2ccccc2)=C(C)N3)c1 (stereo unspecified) 12.9%, O=C(OCc1cc(=O)n2nc(-c3cccs3)sc2n1)c1ccccc1Cl 8.8%, CCOc1ccccc1NC(=O)CSc1nc2c(oc3ccccc32)c(=O)n1-c1ccc(F)cc1 -20.5%, CSc1ccccc1-c1nnc(NC(=O)c2ccc3c(c2)OCCO3)o1 11.1%, Cc1c(C(=O)N2CCCCCC2)c(S(=O)(=O)NCc2ccccc2)c(C)n1C 1.68%, O=C(Nc1ccc(F)c(Cl)c1)Nc1c[nH]c(=O)[nH]c1=O 10.3%, O=C(CSc1nc(=O)n(CCN2CCOCC2)c2c1CCC2)Nc1ccc(Cl)c(Cl)c1 -33.5%
